# Data from the supplement of paper PMC11417369.
# The other results are listed elsewhere or left out.
# System: PF3D7_0420300 AP2 domain 1 (GST-tagged)
# Assay: gcPBM binding intensity (ln(normalized median fluorescence intensity)); higher = stronger DNA binding
# In short: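 Binding of GST-tagged P. falciparum DNA-binding domains, expressed in E. coli and used at about 25 μg on average, was carried out for 1 h in 1× PBS containing 1% milk, 0.2 mg/ml BSA, 0.5% salmon testes DNA and 0.03% Triton X-100. The target was an Agilent 4 × 180k array of primer-extended double-stranded 36-bp intergenic genomic probes plus negative controls, read with Alexa488 anti-GST antibody at 488 nm. Binding intensity is the highest Masliner-normalised natural-log median intensity across replicate spots of either probe orientation.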
row,Sequence,gcPBM binding intensity (ln)
1,ATTTATTTAAACAAATCACACACAAATATATATACA [CACACA_site8622],9.68
2,CATACATAGATATATACACACATACCTATAAATACA [CACACA_site6513],9.78
3,TATATATGTGTTATATACCCTTTTTTATATATTAAT [XGTACX_negctrl_site313],9.53
4,TAAAAATCCACAAGCACACAAATGTACATATATATA [CACACA_site2462],9.59
5,TTTCAAAATGTGTAAAATAAAAATAATATCATTACA [TGCATGCA_negctrl_site521],9.08
6,ATGTGATATAAGTACACACACATATGTATATAGAAT [CACACA_site1823],9.81
7,TTTTGTTTTGTTTTGTTTTGTTTTGTTTTATTTTAT [GTGCAC_negctrl_site383],9.57
8,AATGTATATATGTAATGTACATATGTAATGTATATA [XGTACX_site6509],9.42
9,AATATAGATATAACCACACACATACATCTAATTCTA [CACACA_site1760],9.76
10,GAAAAGAACAAGAGCATGCACTTAATAAGAATAATA,9.21
11,TGTTTCTTATTTTTTTCACACACTAAACATTTCAAA [CACACA_site2218],9.62
12,AATAAAAAAAGTTTTTTTTTTTTTTAAACAATAGAC [CACACA_negctrl_site1061],9.01
13,AAAAATTTAATGAAATGTACATATATGTTATTAATA [XGTACX_site6091],9.16
14,ATAATAATAATAAAAAGTACATTTAATTATATAGAA [XGTACX_site7742],9.41
15,AATAACCACCAACACACACACATATATATATATATA [CACACA_site3540],9.89
16,AAGAATGTTAATAGTACACACAATTATTATATAAAT [CACACA_site3739],9.61
17,TATATGTTTTAAAAGTGTACTTTAGTTTCAATTTTT [XGTACX_site4269],9.18
18,TAAATGCACATATACACACACCCAATTTTAAGTTTT [CACACA_site7428],9.86
19,ACATCAAGAATTATTAAGAATACGGATAGATAAAAT [GTGCAC_negctrl_site261],9.4
20,ATACATATTACATGTTGTACTCCAACAAAAATGCCC [XGTACX_site3201],9.29
21,TTAATTTCATTTTCTACACACCTATCCTTTTTTTTT [CACACA_site772],9.57
22,ATATATATATAATCAAGTACACAGTAATAAAAAGAA [XGTACX_site1070],9.78

row,Sequence,gcPBM binding intensity (ln)
1,AATAATAACTGTAGGTGTACGTAAAAAAAAAATTAT [XGTACX_site3133],9.43
2,ATTGTGTTCATCAGCACACACAACATCATGCAATAA [CACACA_site6960],9.46
3,TTTTTTTTTTTTTGTTGTACAATACTTAATCATTAT [XGTACX_site3422],9.04
4,TTTTTTTTTTTTGAAACATGCATTGTTTTATTCTTA [TGCATGCA_site15],9.02
5,TCTATACCTATTCTTACACACATATGTATATATATA [CACACA_site563],9.79
6,TATATATATGTATATGTGCACAGTTTTCTTATTAAA [GTGCAC_site9990],9.24
7,TGGGCACCCATATACACACACAAATACAATGATAAA [CACACA_site4762],9.7
8,AAAAAAAAAAAAATGTGTACATACATATATTTATAT [XGTACX_site3076],9.19
9,GGAAAAGGTATCCGTTCACACATAAATGGATACCAT [CACACA_site5072],9.13
10,TCTATATAGATTTGCACACATAAAAATGCTTATATA [CACACA_site2389],9.27
11,ATTACATATTGATAAGTGCAAGTGTGAGAAATGTTA,9.32
12,AATATATTATATATATGTACATATGTGTATACATTT [XGTACX_site937],9.24
13,TTTTATTTATTTTATTGTACATATATAAAACTATGA [XGTACX_site3476],9.12
14,CAATCAAATGGACACACACACACCTAAACATAAAAG [CACACA_site5524],10.2
15,ATTAAAAAATTACAAGCATGCTTGTTAAAATTTTTT [TGCATGCA_site941],8.85
16,CTTTTTTTTTTAAATTGTACAAATGTGATGTAATAG [XGTACX_site3219],8.98
17,TAAATATATATTATATGTACTTATATATATATATAT [XGTACX_site4448],9.13
18,TTTTTCATTTTTAAAATAATTATAATATTATACATA [XGTACX_negctrl_site43],8.95
19,TAAATCAGCCATAACACACATACATATATACATAAA [CACACA_site396],9.6
20,AGCAAATAAATAAATAAATAAATAAATATATATATA [TGCATGCA_negctrl_site40],9.23
21,ATAATTAACAAATACACACACACACGCCCACAAAAA [CACACA_site6389],10.2
22,ATATATATGTGTAAAAGTACATATATTTTGAAATAT [XGTACX_site4024],9.3
